Among all 370,000 compounds or so, about 150 (0.041%) were called active. The inconclusive results got no clear call from the source; some entries with a clear call stand among them for comparison. Calls follow the shape of the dose curve; as a rule, active = well fitted inhibition curve with a large enough effect; inconclusive = small, poorly fitted or top-dose-only effect; inactive = flat fitted curve, though single readings scatter. No potency is given beside an inconclusive call; the fits are too rough.
biological target: Beta-lactamase (Escherichia coli (strain K12)) (UniProt P00811); test: qHTS Inhibitors of AmpC Beta-Lactamase (assay with detergent); settings: AmpC hydrolysis of nitrocefin, absorbance 480 nm, 0.01% Triton; activity change, negative = inhibition: at 114 µM (top of the series); also: nearly all actives have a fitted effect of over 25% in size;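 as to activity change, negative = inhibition: 0% = no-compound wells and -100% = no-enzyme wells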
UniProt P00811, sequence (P00811 whole entry, looked up): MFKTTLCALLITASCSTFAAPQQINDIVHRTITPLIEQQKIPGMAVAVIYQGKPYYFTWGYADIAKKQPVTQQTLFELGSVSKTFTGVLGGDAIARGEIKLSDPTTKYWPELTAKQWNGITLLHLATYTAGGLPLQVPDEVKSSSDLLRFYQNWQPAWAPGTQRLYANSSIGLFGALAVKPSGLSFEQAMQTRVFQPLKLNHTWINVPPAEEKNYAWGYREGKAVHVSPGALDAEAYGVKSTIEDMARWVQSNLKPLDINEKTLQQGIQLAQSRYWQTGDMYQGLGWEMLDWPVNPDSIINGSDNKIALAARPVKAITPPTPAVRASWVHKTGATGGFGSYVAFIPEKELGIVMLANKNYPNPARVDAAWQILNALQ
Method in brief: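 AmpC (5.3 nM in the dispensed reagent) in 20 mM phosphate pH 7.0 with 0.01% (detergent screen) or 0.0001% Triton X-100 was preincubated with compounds for 15 min at room temperature. Nitrocefin was then added from an 800 uM solution, and hydrolysis was followed at 480 nm.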
Potency is read from the fitted curve at half-maximal effect; tags tell the direction and shape of the fitted curve.

Compound	Potency	activity change, negative = inhibition
O=C(C1CCN(CCCc2ccccc2)CC1)N(CCc1ccccc1)Cc1ccccc1	inconclusive [inhibitor, full curve, poor fit]	–
O=C(CN1C(=O)NC2(CCc3ccccc32)C1=O)c1ccc(F)cc1 (stereo not drawn)	inconclusive [inhibitor, partial curve, poor fit]	–
CCC(C)NC(=O)CSc1nc2n[nH]c(C)c2c(=N)n1-c1ccc(C)c(Cl)c1 (stereo not drawn)	–	inactive: 8.35%
O=C(Nc1nccs1)c1ccc(COc2ccc(F)cc2)o1	–	inactive: -17.2%
Cc1ccc(-c2cc(C(=O)N/N=C/c3ccoc3)c3ccccc3n2)cc1	inconclusive [inhibitor, full curve, poor fit]	–
CCC(=O)N1CCc2cc(S(=O)(=O)N3CCN(c4ccccn4)CC3)ccc21	inconclusive [inhibitor, single point]	–
COc1ccc(CC(=O)OCC(=O)c2ccc(OC)cc2)cc1	inconclusive [inhibitor, partial curve, poor fit]	–
CN(C)C(CN1C(=O)C2CC=CCC2C1=O)c1cn(C)c2ccccc12 (stereo not drawn)	inconclusive [inhibitor, full curve]	–
CCN(c1ccccc1)S(=O)(=O)c1ccc(C(=O)Nc2ccc(C)cn2)cc1	inconclusive [inhibitor, full curve, poor fit]	–
CCC(Sc1nc2ccccc2c2nc(-c3ccccc3)nn12)C(=O)Nc1cccc(OC)c1 (stereo not drawn)	–	inactive: 8.03%
OCCOCCOCCn1c2ccccc2c2ccccc21	inconclusive [inhibitor, full curve, poor fit]	–
CSc1c[n+]2c(n1C)CCC2	inconclusive [inhibitor, full curve, poor fit]	–
Fc1cccc(Cl)c1/C=N/Nc1ccccn1	inconclusive [inhibitor, partial curve, poor fit]	–
COc1ccc(CNC(=S)Nc2ccc(F)c(Cl)c2)cc1OC	inconclusive [inhibitor, full curve, poor fit]	–
O=C(c1ccc(F)cc1)n1nc(-c2ccccc2)nc1NCc1ccc(F)cc1	–	inactive: -0.359%
COc1ccc(-c2nc(NC(=O)CSc3nnc4ccccn34)ns2)cc1	inconclusive [inhibitor, full curve, poor fit]	–
O=S(=O)(Nc1ccc(-c2ccc3nncn3n2)cc1)c1cccc(F)c1	inconclusive [inhibitor, full curve, poor fit]	–
COC(=O)c1cc(C(=O)N2CCN(c3cccc(Cl)c3)CC2)cc([N+](=O)[O-])c1	inconclusive [inhibitor, full curve, poor fit]	–
Cn1nnc2ccccc2c1=O	inconclusive [inhibitor, full curve, poor fit]	–
CCC(C)(C)NC(=O)C1c2ccccc2Oc2ccccc21	inconclusive [inhibitor, full curve, poor fit]	–
Cc1ccnc(NC(=O)C2CCN(S(=O)(=O)c3ccc4c(c3)CC(C)N4C(=O)C3CCC3)CC2)c1 (stereo not drawn)	–	inactive: -0.359%
Nc1nc2c(s1)COc1ccccc1-2	–	inactive: 6.08%
CCCCn1c(O)c(/C=C/C=C/C=Nc2ccccc2)sc1=S	inconclusive [inhibitor, full curve, poor fit]	–

Compound	Potency	activity change, negative = inhibition
N#CC1(NC(=O)COC(=O)c2nc(Cl)ccc2Cl)CCCCC1	–	inactive: -16.7%
CC1Cc2cc(S(=O)(=O)N3CCN(c4cccc(Cl)c4)CC3)ccc2N1C(=O)C1CC1 (stereo not drawn)	inconclusive [inhibitor, full curve, poor fit]	–
NC(=O)CNC(=O)[C@@H]1CC2(CC(c3cccc([N+](=O)[O-])c3)=NO2)CN1C(=O)c1ccccc1 (stereo partly drawn)	inconclusive [inhibitor, partial curve]	–
O=C1C(=O)N(CNc2ccccn2)c2ccccc21	inconclusive [inhibitor, full curve, poor fit]	–
N#CC1=C(N)SC(C(=O)c2ccccc2)C1c1cccs1 (stereo not drawn)	inconclusive [inhibitor, single point]	–
Cc1ccc2nc(NCc3ccc(F)cc3)c3nncn3c2c1	inactive	–
CSc1ccccc1NC(=O)COc1ccc(S(=O)(=O)N2CCCC2)cc1	–	inactive: -2.21%
COc1ccc(CN(C(=O)c2oc3ccccc3c2C)C2CCS(=O)(=O)C2)cc1OC (stereo not drawn)	–	inactive: 2.32%
CCOC(=O)c1c(C)n(C)c2ccc(OCC(O)Cn3c(C)nc4ccccc43)cc12 (stereo not drawn)	inconclusive [inhibitor, single point]	–
CCCCNC(=O)C1CCC(CNS(=O)(=O)c2ccc(NC(C)=O)cc2)CC1 (stereo not drawn)	inconclusive [inhibitor, partial curve]	–
CSC1CCCCC1(O)CSc1nc2ccccc2o1 (stereo not drawn)	inconclusive [inhibitor, full curve, poor fit]	–
Cc1ccccc1NC(=O)CCC(=O)N/N=C/c1c[nH]c2ccccc12	inconclusive [inhibitor, partial curve]	–
CCC(=O)NC(=S)Nc1ccc(-c2nc3ccccc3s2)cc1	–	inactive: -10.3%
COc1ccc(CCNC(=O)c2cc3c(=O)n(C)c4ccccc4c3n2C)cc1OC	–	inactive: 0.659%
CCOC(=O)c1ccc(N2C(=O)C3C(C2=O)C(C(=O)c2ccc(Cl)cc2)N2CCCC32)cc1 (stereo not drawn)	–	inactive: 5.32%
Cc1ccc2c(c1)N(CC(=O)N1CCCc3ccccc31)C(=O)C(C)O2 (stereo not drawn)	inconclusive [inhibitor, full curve]	–
CCOc1ncccc1C(=O)OCC(=O)NC1CC1	inconclusive [inhibitor, full curve]	–
COc1ccnc(N2CCN(c3ccc(Cl)cc3)CC2)c1C#N	inconclusive [inhibitor, partial curve, poor fit]	–
COc1cc(CCC(=O)NCc2ccc3c(c2)CCN3C(=O)c2ccc(F)cc2)cc(OC)c1OC	–	inactive: 8.32%
O=C(N/N=C/c1ccc2cccnc2c1)c1ccco1	inconclusive [inhibitor, full curve, poor fit]	–
Cc1ccc(C(=O)NCC(=O)OCC(=O)c2ccc(Br)s2)cc1	inconclusive [inhibitor, full curve, poor fit]	–
COc1cc2c(cc1NC(=O)c1cncc(Br)c1)oc1ccccc12	–	inactive: 4.43%
O=C(NC(=S)N(CCO)Cc1ccccc1)c1ccc(S(=O)(=O)N2CCCC2)cc1	inconclusive [inhibitor, partial curve, poor fit]	–

Compound	Potency	activity change, negative = inhibition
O=C(CSc1nc2[nH]ncc2c(=O)[nH]1)Nc1ccc(OC(F)(F)F)cc1	inconclusive [inhibitor, full curve]	–
O=C(NCCc1ccccc1)c1cnc(Cl)c(Cl)c1	inconclusive [inhibitor, partial curve, poor fit]	–
CCC1=C(OC(=O)N(CC)CC)N2C(=O)OC(=NCC3CC3)[C@]2(Cc2ccccc2)[C@H]2C1=CC[C@H]1C(=O)N(c3ccccc3)C(=O)[C@H]12	–	inactive: 2.79%
CC1Cc2nc(SCC(=O)NCc3ccco3)n(Cc3ccccc3)c(=O)c2S1 (stereo not drawn)	inconclusive [inhibitor, partial curve, poor fit]	–
CCC(=O)N(Cc1ccco1)c1nc(-c2ccc(OC)cc2)cs1	–	inactive: -3.16%
O=C(c1nc2ccccc2s1)N1CCN(c2ccccn2)CC1	inconclusive [inhibitor, single point]	–
COc1ccccc1C1CCCN1Cc1nc(-c2ccc(C)s2)oc1C (stereo not drawn)	–	inactive: 7.98%
COc1cccc(NC(=O)CCN2CCN(c3ccccc3F)CC2)c1	–	inactive: -0.572%
Cc1cccc(N2CCN(Cc3c(C)n(C)n(-c4ccccc4)c3=O)CC2)c1C	inconclusive [inhibitor, full curve]	–
Cc1cc(N2CCN(C(=O)c3ccco3)CC2)c2ccccc2n1	inconclusive [inhibitor, partial curve]	–
O=C(NCc1ccc2c(c1)OCO2)C(=O)Nc1cc2c3c(c1)CC(=O)N3CCC2	inconclusive [inhibitor, single point]	–
Cc1ccc(-c2noc(CN(C)C(=O)c3ccc(Br)o3)n2)cc1	inconclusive [inhibitor, full curve, poor fit]	–
COc1cc(NC(=O)CN(C)S(=O)(=O)c2ccc3nc(C)sc3c2)cc(OC)c1	inconclusive [inhibitor, partial curve]	–
C=Cc1ccc(CSc2nc(-c3ccc(C)cc3)nc3c2Cc2c(CO)cnc(C)c2O3)cc1	–	inactive: -3.79%
COc1cc(OC)cc(C(=O)Nc2ccc3c(c2)COC3=O)c1	inconclusive [inhibitor, full curve, poor fit]	–
Cc1ccccc1N(C(=O)c1snc(C(N)=O)c1N)C(C(=O)NCc1ccccc1)c1ccc(O)cc1 (stereo not drawn)	–	inactive: -0.308%
CC(C)NC(=S)NC(=O)c1ccc(-c2ccccc2)cc1	–	inactive: -8.33%
Cc1csc2nc(CNC(=O)CCC(=O)O)cn12	inconclusive [inhibitor, full curve]	–
O=C(NC1CCCC1)C(c1ccc(F)cc1)N(C(=O)c1csnn1)c1ccccc1 (stereo not drawn)	inconclusive [inhibitor, single point]	–
CN(CCc1ccccn1)S(=O)(=O)c1ccccc1F	inconclusive [inhibitor, partial curve]	–
CCOC(=O)N1CCC(c2nc(C)sc2C(=O)O)CC1	inconclusive [inhibitor, single point]	–
Cc1cc(C)cc(OCC(=O)OCC(=O)N(CC(C)C)c2c(N)n(Cc3ccccc3)c(=O)[nH]c2=O)c1	inconclusive [inhibitor, full curve, poor fit]	–
